# Measured values published in the supplement of paper PMC11876631.
# ± gives the standard deviation of the averaged measurements. Laboratory Escherichia coli strains with one amino-acid change in an essential protein, pooled on minimal glucose agar with carbenicillin or gentamicin at twice the control MIC (plus kanamycin and chloramphenicol for the plasmids), 48 h. Fold change of barcode share against drug-free plates; higher = less susceptible. Active = above 20 in both replicates (the paper's putatively resistant). '<' = one read or none on drug, '>' = one read or none on a drug-free plate. Shares are relative, so most strains fall below 1 when a few take over. Listed are strains with at least 15 reads on both drug-free plates, and hits; most hits rest on fewer reference reads. Replicate rank correlation about 0.5. Edits are read from barcodes.
# B1: pyrG V413A (protein)
# chain: MTTNYIFVTGGVVSSLGKGIAAASLAAILEARGLNVTIMKLDPYINVDPGTMSPIQHGEVFVTEDGAETDLDLGHYERFIRTKMSRRNNFTTGRIYSDVLRKERRGDYLGATVQVIPHITNAIKERVLEGGEGHDVVLVEIGGTVGDIESLPFLEAIRQMAVEIGREHTLFMHLTLVPYMAASGEVKTKPTQHSVKELLSIGIQPDILICRSDRAVPANERAKIALFCNVPEKAVISLKDVDSIYKIPGLLKSQGLDDYICKRFSLNCPEANLSEWEQVIFEEANPVSEVTIGMVGKYIELPDAYKSVIEALKHGGLKNRVSVNIKLIDSQDVETRGVEILKGLDAILVPGGFGYRGVEGMITTARFARENNIPYLGICLGMQVALIDYARHVANMENANSTEFVPDCKYPVAALITEWRDENGNVEVRSEKSDLGGTMRLGAQQCQLVDDSLVRQLYNAPTIVERHRHRYEVNNMLLKQIEDAGLRVAGRSGDDQLVEIIEVPNHPWFVACQFHPEFTSTPRDGHPLFAGFVKAASEFQKRQAK
# B2: pyrG V295P (protein)
# chain: MTTNYIFVTGGVVSSLGKGIAAASLAAILEARGLNVTIMKLDPYINVDPGTMSPIQHGEVFVTEDGAETDLDLGHYERFIRTKMSRRNNFTTGRIYSDVLRKERRGDYLGATVQVIPHITNAIKERVLEGGEGHDVVLVEIGGTVGDIESLPFLEAIRQMAVEIGREHTLFMHLTLVPYMAASGEVKTKPTQHSVKELLSIGIQPDILICRSDRAVPANERAKIALFCNVPEKAVISLKDVDSIYKIPGLLKSQGLDDYICKRFSLNCPEANLSEWEQVIFEEANPVSEVTIGMPGKYIELPDAYKSVIEALKHGGLKNRVSVNIKLIDSQDVETRGVEILKGLDAILVPGGFGYRGVEGMITTARFARENNIPYLGICLGMQVALIDYARHVANMENANSTEFVPDCKYPVVALITEWRDENGNVEVRSEKSDLGGTMRLGAQQCQLVDDSLVRQLYNAPTIVERHRHRYEVNNMLLKQIEDAGLRVAGRSGDDQLVEIIEVPNHPWFVACQFHPEFTSTPRDGHPLFAGFVKAASEFQKRQAK
# B3: pyrG V295Q (protein)
# chain: MTTNYIFVTGGVVSSLGKGIAAASLAAILEARGLNVTIMKLDPYINVDPGTMSPIQHGEVFVTEDGAETDLDLGHYERFIRTKMSRRNNFTTGRIYSDVLRKERRGDYLGATVQVIPHITNAIKERVLEGGEGHDVVLVEIGGTVGDIESLPFLEAIRQMAVEIGREHTLFMHLTLVPYMAASGEVKTKPTQHSVKELLSIGIQPDILICRSDRAVPANERAKIALFCNVPEKAVISLKDVDSIYKIPGLLKSQGLDDYICKRFSLNCPEANLSEWEQVIFEEANPVSEVTIGMQGKYIELPDAYKSVIEALKHGGLKNRVSVNIKLIDSQDVETRGVEILKGLDAILVPGGFGYRGVEGMITTARFARENNIPYLGICLGMQVALIDYARHVANMENANSTEFVPDCKYPVVALITEWRDENGNVEVRSEKSDLGGTMRLGAQQCQLVDDSLVRQLYNAPTIVERHRHRYEVNNMLLKQIEDAGLRVAGRSGDDQLVEIIEVPNHPWFVACQFHPEFTSTPRDGHPLFAGFVKAASEFQKRQAK
# B4: pyrG M39W (protein)
# chain: MTTNYIFVTGGVVSSLGKGIAAASLAAILEARGLNVTIWKLDPYINVDPGTMSPIQHGEVFVTEDGAETDLDLGHYERFIRTKMSRRNNFTTGRIYSDVLRKERRGDYLGATVQVIPHITNAIKERVLEGGEGHDVVLVEIGGTVGDIESLPFLEAIRQMAVEIGREHTLFMHLTLVPYMAASGEVKTKPTQHSVKELLSIGIQPDILICRSDRAVPANERAKIALFCNVPEKAVISLKDVDSIYKIPGLLKSQGLDDYICKRFSLNCPEANLSEWEQVIFEEANPVSEVTIGMVGKYIELPDAYKSVIEALKHGGLKNRVSVNIKLIDSQDVETRGVEILKGLDAILVPGGFGYRGVEGMITTARFARENNIPYLGICLGMQVALIDYARHVANMENANSTEFVPDCKYPVVALITEWRDENGNVEVRSEKSDLGGTMRLGAQQCQLVDDSLVRQLYNAPTIVERHRHRYEVNNMLLKQIEDAGLRVAGRSGDDQLVEIIEVPNHPWFVACQFHPEFTSTPRDGHPLFAGFVKAASEFQKRQAK
# B5: pyrG V413Q (protein)
# chain: MTTNYIFVTGGVVSSLGKGIAAASLAAILEARGLNVTIMKLDPYINVDPGTMSPIQHGEVFVTEDGAETDLDLGHYERFIRTKMSRRNNFTTGRIYSDVLRKERRGDYLGATVQVIPHITNAIKERVLEGGEGHDVVLVEIGGTVGDIESLPFLEAIRQMAVEIGREHTLFMHLTLVPYMAASGEVKTKPTQHSVKELLSIGIQPDILICRSDRAVPANERAKIALFCNVPEKAVISLKDVDSIYKIPGLLKSQGLDDYICKRFSLNCPEANLSEWEQVIFEEANPVSEVTIGMVGKYIELPDAYKSVIEALKHGGLKNRVSVNIKLIDSQDVETRGVEILKGLDAILVPGGFGYRGVEGMITTARFARENNIPYLGICLGMQVALIDYARHVANMENANSTEFVPDCKYPVQALITEWRDENGNVEVRSEKSDLGGTMRLGAQQCQLVDDSLVRQLYNAPTIVERHRHRYEVNNMLLKQIEDAGLRVAGRSGDDQLVEIIEVPNHPWFVACQFHPEFTSTPRDGHPLFAGFVKAASEFQKRQAK
# B6: pyrG V295A (protein)
# chain: MTTNYIFVTGGVVSSLGKGIAAASLAAILEARGLNVTIMKLDPYINVDPGTMSPIQHGEVFVTEDGAETDLDLGHYERFIRTKMSRRNNFTTGRIYSDVLRKERRGDYLGATVQVIPHITNAIKERVLEGGEGHDVVLVEIGGTVGDIESLPFLEAIRQMAVEIGREHTLFMHLTLVPYMAASGEVKTKPTQHSVKELLSIGIQPDILICRSDRAVPANERAKIALFCNVPEKAVISLKDVDSIYKIPGLLKSQGLDDYICKRFSLNCPEANLSEWEQVIFEEANPVSEVTIGMAGKYIELPDAYKSVIEALKHGGLKNRVSVNIKLIDSQDVETRGVEILKGLDAILVPGGFGYRGVEGMITTARFARENNIPYLGICLGMQVALIDYARHVANMENANSTEFVPDCKYPVVALITEWRDENGNVEVRSEKSDLGGTMRLGAQQCQLVDDSLVRQLYNAPTIVERHRHRYEVNNMLLKQIEDAGLRVAGRSGDDQLVEIIEVPNHPWFVACQFHPEFTSTPRDGHPLFAGFVKAASEFQKRQAK
# B7: pyrG V13A (protein)
# chain: MTTNYIFVTGGVASSLGKGIAAASLAAILEARGLNVTIMKLDPYINVDPGTMSPIQHGEVFVTEDGAETDLDLGHYERFIRTKMSRRNNFTTGRIYSDVLRKERRGDYLGATVQVIPHITNAIKERVLEGGEGHDVVLVEIGGTVGDIESLPFLEAIRQMAVEIGREHTLFMHLTLVPYMAASGEVKTKPTQHSVKELLSIGIQPDILICRSDRAVPANERAKIALFCNVPEKAVISLKDVDSIYKIPGLLKSQGLDDYICKRFSLNCPEANLSEWEQVIFEEANPVSEVTIGMVGKYIELPDAYKSVIEALKHGGLKNRVSVNIKLIDSQDVETRGVEILKGLDAILVPGGFGYRGVEGMITTARFARENNIPYLGICLGMQVALIDYARHVANMENANSTEFVPDCKYPVVALITEWRDENGNVEVRSEKSDLGGTMRLGAQQCQLVDDSLVRQLYNAPTIVERHRHRYEVNNMLLKQIEDAGLRVAGRSGDDQLVEIIEVPNHPWFVACQFHPEFTSTPRDGHPLFAGFVKAASEFQKRQAK
# B8: pyrG M39A (protein)
# chain: MTTNYIFVTGGVVSSLGKGIAAASLAAILEARGLNVTIAKLDPYINVDPGTMSPIQHGEVFVTEDGAETDLDLGHYERFIRTKMSRRNNFTTGRIYSDVLRKERRGDYLGATVQVIPHITNAIKERVLEGGEGHDVVLVEIGGTVGDIESLPFLEAIRQMAVEIGREHTLFMHLTLVPYMAASGEVKTKPTQHSVKELLSIGIQPDILICRSDRAVPANERAKIALFCNVPEKAVISLKDVDSIYKIPGLLKSQGLDDYICKRFSLNCPEANLSEWEQVIFEEANPVSEVTIGMVGKYIELPDAYKSVIEALKHGGLKNRVSVNIKLIDSQDVETRGVEILKGLDAILVPGGFGYRGVEGMITTARFARENNIPYLGICLGMQVALIDYARHVANMENANSTEFVPDCKYPVVALITEWRDENGNVEVRSEKSDLGGTMRLGAQQCQLVDDSLVRQLYNAPTIVERHRHRYEVNNMLLKQIEDAGLRVAGRSGDDQLVEIIEVPNHPWFVACQFHPEFTSTPRDGHPLFAGFVKAASEFQKRQAK
# B9: pyrF L154Q (protein)
# chain: MTLTASSSSRAVTNSPVVVALDYHNRDDALAFVDKIDPRDCRLKVGKEMFTLFGPQFVRELQQRGFDIFLDLKFHDIPNTAAHAVAAAADLGVWMVNVHASGGARMMTAAREALVPFGKDAPLLIAVTVLTSMEASDLVDLGMTLSPADYAERQAALTQKCGLDGVVCSAQEAVRFKQVFGQEFKLVTPGIRPQGSEAGDQRRIMTPEQALSAGVDYMVIGRPVTQSVDPAQTLKAINASLQRSA
# B10: pyrF L154D (protein)
# chain: MTLTASSSSRAVTNSPVVVALDYHNRDDALAFVDKIDPRDCRLKVGKEMFTLFGPQFVRELQQRGFDIFLDLKFHDIPNTAAHAVAAAADLGVWMVNVHASGGARMMTAAREALVPFGKDAPLLIAVTVLTSMEASDLVDLGMTLSPADYAERDAALTQKCGLDGVVCSAQEAVRFKQVFGQEFKLVTPGIRPQGSEAGDQRRIMTPEQALSAGVDYMVIGRPVTQSVDPAQTLKAINASLQRSA
# B11: pyrF L154P (protein)
# chain: MTLTASSSSRAVTNSPVVVALDYHNRDDALAFVDKIDPRDCRLKVGKEMFTLFGPQFVRELQQRGFDIFLDLKFHDIPNTAAHAVAAAADLGVWMVNVHASGGARMMTAAREALVPFGKDAPLLIAVTVLTSMEASDLVDLGMTLSPADYAERPAALTQKCGLDGVVCSAQEAVRFKQVFGQEFKLVTPGIRPQGSEAGDQRRIMTPEQALSAGVDYMVIGRPVTQSVDPAQTLKAINASLQRSA
# Molecular target: Escherichia coli (laboratory strain)
# Test: barcode share on antibiotic plates over drug-free plates; higher = less susceptible
# Details: antibiotic: carbenicillin; 2× MIC (3.1 µg/mL)
# Protocol: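 A pool of E. coli strains, each edited to carry one amino-acid change in an essential protein, was grown for 48 h on minimal glucose agar with or without antibiotic; strain barcodes were sequenced; mean of two replicates.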
row,Protein,fold change of barcode share
1,B1,0.65 ± 0.07
2,B2,0.251 ± 0.1
3,B3,0.188 ± 0.0032
4,B4,0.557 ± 0.027
5,B5,1.14 ± 0.44
6,B6,0.304 ± 0.18
7,B7,0.333 ± 0.13
8,B8,0.188 ± 0.0099
9,B9,0.887 ± 0.074
10,B10,2.35 ± 0.09
11,B11,46.1 [active]

# Same assay, conditions: antibiotic: gentamicin; 2× MIC (MIC 0.45 µg/mL)
row,Protein,fold change of barcode share
1,B1,< 0.00308
2,B2,< 0.00283
3,B3,0.00914 ± 0.0076
4,B4,< 0.0119
5,B5,0.0638 ± 0.015
6,B6,0.00462 ± 0.0037
7,B7,< 0.00544
8,B8,0.0149 ± 0.014
9,B9,0.0532 ± 0.014
10,B10,0.034 ± 0.0045
